According to PubChem BioAssay AID1919013 (Molecular Pharmacology Branch, DTP, NCI, 2023):
Certain results were filed several times, with different values. The other results are left out here. There may be further records. Results that share an entry repeat one measurement across runs, samples, wells, individuals or studies. Marks such as (2×) count equal records among those shown. Dates in brackets are months of testing.

System: LG0703-F498-PDC complex spheroid growth
Assay: Anticancer human tumor LG0703-F498-PDC patient-derived lung adenocarcinoma cell line growth inhibition [AhR]
Conditions: for viability, T/C: stronger effect = lower value
Source text: Multicellular complex tumor spheroid response to aryl hydrocarbon receptor antagonists in combination with a variety of drugs and investigational agents in selected tumor cell lines
The current study was undertaken to assess response to aryl hydrocarbon receptor antagonists in combination with standard-of-care drugs and investigational agents in solid tumor complex spheroid models. Complex spheroids include a stromal component modeled by human endothelial cells (HUVEC) and fibroblasts modeled by human mesenchymal stem cells (MSCs). The concentration ranges selected for each drug and investigational agent were based upon clinically achievable concentrations if the clinical Cmax of the agent was known.
Compounds. The drugs and investigational agents: BAY 2416964 (NSC825713), GNF351 (NSC835774), CH-223191 (NSC835775), CPI-455 (NSC825282), aza-TdCyd (NSC777586), decitabine (NSC127716), belinostat (NSC758774), entinostat (NSC756642), pevonedistat (NSC761192), tazemetostat (NSC777109), talazoparib (NSC765396), olaparib (NSC753686), selinexor (NSC780203), nedisertib (M3814, NSC802822), bortezomib (NSC756655), venetoclax (NSC766270), doxorubicin (NSC123127), elimusertib (BAY189344, NSC800525), ceralasertib (AZD6738, NSC777638), TAK-243 (NSC785004), alisertib (NSC759677), etoposide (NSC141540), topotecan (NSC609699), eribulin (NSC707389), gemcitabine (NSC613327), carboplatin (NSC241240), cisplatin (NSC119875), and SN-38 (NSC673596) were obtained from the National Cancer Institute (NCI) Developmental Therapeutics Program Chemical Repository (32). The FDA-approved anticancer drug set is available from the Developmental Therapeutics Program at https://dtp.cancer.gov/organization/dscb/obtaining/available plates.htm. […] The stock solutions were prepared in dimethyl sulfoxide (DMSO, Sigma-Aldrich, St. Louis, MO, cat. D2650), except for the platinum compounds which were prepared in saline (Quality Biological, Gaithersburg, MD, cat. 114-055-101), at 800-fold the tested concentration and stored at -70 degrees C prior to their use. All drugs and investigational agents were tested over a range starting from a high concentration at or near the clinical Cmax and decreasing in half-log increments. If the clinical Cmax for an agent had not been determined, the highest concentration tested was 10 microM (Table 1).
Cell Culture. All cells were maintained in an incubator at 37 degrees C and 5% CO2 with 95% humidity. The PDC lines were cultured according to standard operating procedures established by the NCI PDMR (https://pdmr.cancer.gov). Briefly, all PDCs were thawed and cultured in Matrigel-coated flasks prepared with a working solution of 1X Ham's F-12 nutrient mix, without supplementation (Invitrogen, Waltham, MA, cat. 11765054), 100 U/mL penicillin-streptomycin (Invitrogen, cat. 15140122), and 2.5% Matrigel (Corning Inc., Corning, NY, cat. 354248) for the first three passages. All PDCs were cultured in complete DMEM/F-12 media containing advanced DMEM/F-12 (Invitrogen, cat. 12634028), 4.9% defined fetal bovine serum, heat inactivated (HyClone Laboratories Inc., Logan, UT, cat. SH30070.03HI), 389 ng/mL hydrocortisone (Sigma-Aldrich, cat. H4001), 9.7 ng/mL human EGF recombinant protein (Invitrogen, cat. PHG0313), 23.4 microg/mL adenine (Sigma-Aldrich, cat. A2786), 97.3 U/mL penicillin-streptomycin (Invitrogen, cat. 15140122), 1.9 mM L-glutamine (Invitrogen, cat. 25030081), and 9.7 microM Y-27632 dihydrochloride (Tocris Bioscience, Bristol, United Kingdom, cat. 1254). The PDCs were cultured in complete DMEM/F12 media without 10 microM Y-27632 dihydrochloride for at least two passages prior to the screen. The established cell lines NCI-H1341 and […] were cultured in DMEM/F-12, HEPES (Invitrogen, cat. 11330032), 5% defined fetal bovine serum (HyClone Laboratories Inc., cat. SH30070.03), ITS premix universal culture supplement [insulin (5 microg/mL), transferrin (5 microg/mL), and selenious acid (5 ng/mL)] […]
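Further: luminescence taken as a proxy for viable cell amount.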
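Wherever viability, T/C is given: percent of DMSO vehicle control where 100% means growth equal to vehicle.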

For `Cc1ccccc1N=Nc1ccc(NC(=O)c2ccnn2C)c(C)c1`, which viability, T/C (compound alone 0.1 µM) is on record?
Its viability, T/C is 105, 95.7, 92.9, 92.5, 102, 100, 89.6, 89.7, 86.6, 110, 99.4, 90.7, 93.4 (2×), 85.8, 101, 91.3, 94.8, 90.3, 82.2%.

What about the viability, T/C (compound alone 0.316 µM) of the same compound?
Its viability, T/C is 103 (2×), 93.6, 87.6, 97.8, 93, 83.5, 98.2, 95.9 (2×), 88.5, 93.2, 111, 88.8, 90.1, 93.7, 95.8, 85, 100, 85.5%.

And the viability, T/C (compound alone 10 µM)?
Its viability, T/C is 85.5, 93, 87.2, 79.8, 86.8 (2×), 79, 91.3, 84.4, 89.5, 89.8, 94, 81.5, 78.8, 87.7, 79.7, 91, 88.2, 95, 67.3%.

Which IC50 (combination with AhR antagonists, compound alone, run of 06/06/2022) does the source give for `Cc1cncc(-c2nc(NCCc3c[nH]c4ccccc34)c3ncn(C(C)C)c3n2)c1` here?
Its IC50 is 3.37 µM and 2.2 µM and 3.1, 4.15, 3.82, 3.61, 4.23, 3.07, 2.79, 2.74, 2.59, 2.61, 4.01, 3.05, 2.67, 2.62, 1.59, 1.89, 4.98, 2.48, 2.58, 2.64, 2.51, 2.37 µM [2022-06].

And the viability, T/C (compound alone 0.1 µM)?
The viability, T/C was 88.8, 101 (4×), 94.3, 89.3, 94.6, 93.7, 99.1, 84.9, 106, 91.2, 94.9, 110, 104, 117, 102, 93.4, 81.9%.

What about the viability, T/C (compound alone 0.316 µM) of the same compound?
Its viability, T/C is 92.5, 97.3, 95.8, 102, 110, 98, 105, 113, 99.9, 93.9, 94.9, 98.5, 89.1 (2×), 101, 109, 114, 116, 96.2, 92.3%.

And the viability, T/C (compound alone 1 µM)?
Its viability, T/C is 102 (2×), 111, 122, 97.6, 98.3, 103, 93.9, 98.5, 92.6, 114 (2×), 92.7, 104 (2×), 90, 99.9, 81.3, 90.3, 97.5%.

What about the viability, T/C (compound alone 3.16 µM) of the same compound?
Its viability, T/C is 49.1, 65.1, 59.7, 56.5, 66.6, 48.8, 44.7, 43, 41.1, 39.2, 62.5, 48.6, 53, 42.9, 40.2, 25.2, 3.41, 17.4, 81.9, 37.5, 38.3%.

What does the source list for `CC(CO)NC(=O)c1cc(-c2ccc(Cl)cc2)nn(-c2cnn(C)c2)c1=O` (stereo unspecified)?
viability, T/C (compound alone 0.1 µM): 101, 91, 103, 96.7, 102 (2×), 94.4, 95.4, 90.9, 98.1, 90.7, 91.4, 99.1, 77.5, 80.2, 90, 95.1, 91.5, 89, 85.7%; viability, T/C (compound alone 0.316 µM): 87.8, 74.2, 109, 84.5, 93, 84.1, 88, 82.6, 89.7, 85.3, 97.5, 102, 89.2, 81.8, 91.8, 93.4 (2×), 94, 96.2, 83.5, 96.3%; viability, T/C (compound alone 3.16 µM): 87.6, 82.5, 83.9, 82.2, 84, 79.8, 68.5, 83.8, 74, 91.1, 90.3, 78.4, 83.5, 85.8, 87.8, 93.8, 78.7, 84.3, 91.6%
